In all, about 340,000 compounds went through this assay and about 12,000 (3.5%) were called active. The inconclusive results got no clear call from the source; some entries with a clear call stand among them for comparison. Calls come from the whole dose curve; as a rule, active = well fitted inhibition curve with a large enough effect; inconclusive = small, poorly fitted or top-dose-only effect, or another doubt; inactive = no such curve, though single readings can be large or run the other way. No potency is given beside an inconclusive call; the fits are too rough.
Assay: qHTS Assay for Inhibitors of Hepatitis C Virus (HCV)
Conditions: Huh7.5.1 HCVcc-Cre (HCVcc is cell-culture hepatitis C virus) infection, luciferase reporter, 44 h; series mostly up to 41.8 µM
Procedure, shortened: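 A cell-based infection assay in which seeded cells (1,000 per well) receive test compound after 4 h, are inoculated with HCVcc-Cre at approximately 0.5 moi, and are incubated 44 h before luminescence detection.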
With `O=C(NCC1CCCO1)c1cc2c([nH]c3ccccc32)c(-c2ccc(F)cc2)n1` (configuration not stated) the Potency was active: 1.58 µM. With `CC(=O)Nc1ccc(S(=O)(=O)N2CCN(Cc3cccnc3)CC2)cc1` the Potency was “inactive”. For `COc1cc(NC(=O)c2ccccc2)c(OC)cc1NC(=O)CN1CCOCC1`, the Potency was inconclusive [inhibitor, partial curve]. With `COCCNC(=O)CSc1nc2cc3c(cc2c(=O)n1Cc1ccco1)OCO3` the Potency was inconclusive [inhibitor, full curve]. For `CCc1noc(C)c1C(=O)N1CC(C)SC1=Nc1ccc(Cl)cc1` (configuration not stated), the Potency was inconclusive [inhibitor, partial curve]. With `CC1CCCCN1CCn1c(=S)[nH]c2cc3c(cc2c1=O)OCO3` (configuration not stated) the Potency was inconclusive [inhibitor, single point]. In the case of `NC1=NC(=Nc2cccc(S(=O)(=O)N3CCOCC3)c2)c2ccccc21`, the Potency was “inactive”. With `COC(=O)C1=C(c2ccc(C(C)=O)cc2)C[C@@H]2CC[C@H]1N2C(=O)NCC1CC1` the Potency was “inactive”. With `C/C(=N\NC(=S)NCc1ccccc1)c1ccc(Cl)s1` the Potency was active: 11.2 µM. With `CCCCn1c(=O)[nH]c(=O)c2c1nc(-c1ccncc1)n2CCOC` the Potency was inconclusive [inhibitor, single point]. In the case of `COc1ccc(N(CC(=O)N2CCCCC2)S(=O)(=O)c2ccccc2)c(OC)c1`, the Potency was “inactive”. For `c1ccc(Nc2nnc(-c3cccc4ccccc34)o2)cc1`, the Potency was inconclusive [inhibitor, partial curve]. For `COc1cc(CCCN2C(=O)C(=O)NC[C@@H]2c2ccccc2)cc(OC)c1OC`, the Potency was “inactive”. With `O=C(O)c1coc2ccccc12` the Potency was “inactive”. With `COc1ccc(-c2n[nH]c(C)c2-c2ccc(Cl)cc2)c(O)c1OC` the Potency was active: 14.1 µM. For `Cc1cc(Cl)cc(Cl)c1OCCCCN(C)C`, the Potency was inconclusive [inhibitor, full curve, poor fit]. With `CCCc1nc2ccccc2c(=O)n1CC(=O)c1ccccc1` the Potency was “inactive”. In the case of `CSc1nnc(Nc2ccccc2C)s1`, the Potency was “inactive”. For `C=CCNc1oc(-c2cccs2)nc1C#N`, the Potency was inconclusive [inhibitor, partial curve]. In the case of `CCOc1ccc(S(=O)(=O)N2CCN(CN3C(=O)CC4(CCCC4)C3=O)CC2)cc1`, the Potency was “inactive”. In the case of `CCc1ccc(NC(=O)CSc2nc(NS(=O)(=O)c3ccccc3)cc(=O)[nH]2)cc1`, the Potency was inconclusive [inhibitor, single point]. In the case of `CC(C)NC(=O)CSc1nc(Cc2ccccc2)nc2ccccc12`, the Potency was inconclusive [inhibitor, single point]. In the case of `C/C(=N\NC(=O)c1cccc(Br)c1)c1ccc(Br)cc1`, the Potency was inconclusive [inhibitor, partial curve, poor fit]. For `CC(=O)n1cc(N(C(=O)CCl)c2ccc([N+](=O)[O-])cc2)c2ccccc21`, the Potency was active: 7.08 µM. With `Cc1ccc(NC(=O)CCNS(=O)(=O)c2ccc3[nH]c(=O)oc3c2)c(Cl)c1` the Potency was “inactive”. In the case of `O=C(Cn1cnc([N+](=O)[O-])c1)c1ccc(F)cc1`, the Potency was “inactive”. With `CC(C)(C)NC(=O)Nc1ccc(F)c(Cl)c1` the Potency was inconclusive [inhibitor, single point]. With `COc1ccc(C(CNC(=O)CCNS(=O)(=O)c2ccc(C)cc2)N2CCOCC2)cc1` (configuration not stated) the Potency was inconclusive [inhibitor, partial curve]. For `COc1ccc(NC(=O)N(C)C[C@H]2Oc3c(NC(=O)c4nc5ccccc5s4)cccc3C(=O)N([C@@H](C)CO)C[C@H]2C)cc1`, the Potency was inconclusive [inhibitor, partial curve]. In the case of `COc1ccc(S(=O)(=O)n2nc(-c3cc(OC)c(OC)c(OC)c3)cc2N)cc1OC`, the Potency was inconclusive [inhibitor, single point]. For `CC(C)c1ccc(Nc2nc(Cl)nc(NCc3ccco3)n2)cc1`, the Potency was inconclusive [inhibitor, partial curve]. For `CN=C1S/C(=C\c2cn(CC(=O)OC)c3ccccc23)C(=O)N1C`, the Potency was inconclusive [inhibitor, single point]. For `CCN1CCN(CCCNC(=O)c2ccc3c(c2)NC(=O)c2ccccc2S3)CC1`, the Potency was active: 10 µM. With `O=C(c1cnn2c(C(F)F)cc(-c3ccccc3)nc12)N1CCN2CCCC2C1` (configuration not stated) the Potency was inconclusive [inhibitor, partial curve]. In the case of `CCOc1ccc(-c2ccc(/C=C3/C(=N)N4C=CSC4=NC3=O)o2)c([N+](=O)[O-])c1`, the Potency was active: 11.2 µM. For `CC(OC(=O)c1nc(Cl)ccc1Cl)C(=O)Nc1ccccc1F` (configuration not stated), the Potency was inconclusive [inhibitor, single point]. With `O=S(=O)(Nc1ccccc1)c1cccc2nsnc12` the Potency was “inactive”. In the case of `O=C(O)C1Cc2ccccc2CN1C(=O)COc1ccc(Cl)cc1` (configuration not stated), the Potency was inconclusive [inhibitor, single point]. For `COCCn1c(=NC(=O)c2cc(-c3cccs3)nc3ccccc23)sc2cc(S(N)(=O)=O)ccc21`, the Potency was active: 10 µM. For `CCn1cc(C(=O)NC2CCCCCC2)c2cc(OC)c(OC)cc2c1=O`, the Potency was inconclusive [inhibitor, single point]. For `CC(C)c1ccc2[nH]c3c(c2c1)CCCC3=O`, the Potency was inconclusive [inhibitor, single point]. In the case of `Oc1c(N=NC(=S)Nc2ccccc2F)c2ccccc2n1Cc1ccccc1Cl`, the Potency was inconclusive [inhibitor, full curve]. In the case of `CC(C)CC(NC(=O)C1CCC(C)CC1)C(=O)NCc1ccco1` (configuration not stated), the Potency was “inactive”. In the case of `Cc1ccc(S(=O)(=O)Nc2ccc(NC(=O)c3c(F)c(F)c(F)c(F)c3F)cc2)cc1`, the Potency was active: 12.6 µM. For `Cc1ccc(-n2nnnc2-c2cnn(-c3cccc(F)c3)c2C(F)(F)F)cc1`, the Potency was inconclusive [inhibitor, full curve]. In the case of `CN(C)c1nccc(N(Cc2ccccc2)Cc2ccccc2)c1C#N`, the Potency was inconclusive [inhibitor, single point]. For `Clc1ccc(-c2nnc3n2CCCCS3)cc1`, the Potency was “inactive”.
Potency is the fitted concentration of half-maximal effect; tags give direction and shape of the fitted curve.
